Source: publication PMC8042451
These are yes or no findings as the source states them, for the method shown. In cells and extracts the contact can be indirect. Some entries that bind do so weakly or less than the wild type. For part of these data: Where a sequence is shown, tags or fusion partners need not be part of it.

Chains of the proteins cited; added tags and fusions are not shown. Lines headed by an entry give the natural chain unless they say otherwise; changes in a name come on top. A line that says so, or that is headed by a name, gives the form on record, which may keep a tag or linker.
UniProt P08753: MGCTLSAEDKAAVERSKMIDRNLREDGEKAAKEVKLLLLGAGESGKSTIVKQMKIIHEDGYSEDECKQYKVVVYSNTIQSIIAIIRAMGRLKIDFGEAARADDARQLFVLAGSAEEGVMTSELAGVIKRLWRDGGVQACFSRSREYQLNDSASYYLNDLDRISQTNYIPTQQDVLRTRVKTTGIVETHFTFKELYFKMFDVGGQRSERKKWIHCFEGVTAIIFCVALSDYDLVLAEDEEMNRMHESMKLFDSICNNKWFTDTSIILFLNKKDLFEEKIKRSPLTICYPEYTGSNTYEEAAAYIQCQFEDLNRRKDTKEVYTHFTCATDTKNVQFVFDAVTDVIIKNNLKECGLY
UniProt P63096: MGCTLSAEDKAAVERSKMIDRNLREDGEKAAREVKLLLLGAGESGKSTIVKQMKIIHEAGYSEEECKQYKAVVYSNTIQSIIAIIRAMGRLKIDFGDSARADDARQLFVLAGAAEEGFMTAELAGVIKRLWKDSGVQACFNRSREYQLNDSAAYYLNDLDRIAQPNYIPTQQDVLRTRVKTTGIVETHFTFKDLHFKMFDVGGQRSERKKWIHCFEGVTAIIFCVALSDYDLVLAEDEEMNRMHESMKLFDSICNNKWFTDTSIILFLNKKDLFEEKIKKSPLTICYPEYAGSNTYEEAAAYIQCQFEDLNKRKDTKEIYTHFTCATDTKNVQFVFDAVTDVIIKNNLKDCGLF
myc-tagged human GIV (wild type) (Q3V6T2-3, form named): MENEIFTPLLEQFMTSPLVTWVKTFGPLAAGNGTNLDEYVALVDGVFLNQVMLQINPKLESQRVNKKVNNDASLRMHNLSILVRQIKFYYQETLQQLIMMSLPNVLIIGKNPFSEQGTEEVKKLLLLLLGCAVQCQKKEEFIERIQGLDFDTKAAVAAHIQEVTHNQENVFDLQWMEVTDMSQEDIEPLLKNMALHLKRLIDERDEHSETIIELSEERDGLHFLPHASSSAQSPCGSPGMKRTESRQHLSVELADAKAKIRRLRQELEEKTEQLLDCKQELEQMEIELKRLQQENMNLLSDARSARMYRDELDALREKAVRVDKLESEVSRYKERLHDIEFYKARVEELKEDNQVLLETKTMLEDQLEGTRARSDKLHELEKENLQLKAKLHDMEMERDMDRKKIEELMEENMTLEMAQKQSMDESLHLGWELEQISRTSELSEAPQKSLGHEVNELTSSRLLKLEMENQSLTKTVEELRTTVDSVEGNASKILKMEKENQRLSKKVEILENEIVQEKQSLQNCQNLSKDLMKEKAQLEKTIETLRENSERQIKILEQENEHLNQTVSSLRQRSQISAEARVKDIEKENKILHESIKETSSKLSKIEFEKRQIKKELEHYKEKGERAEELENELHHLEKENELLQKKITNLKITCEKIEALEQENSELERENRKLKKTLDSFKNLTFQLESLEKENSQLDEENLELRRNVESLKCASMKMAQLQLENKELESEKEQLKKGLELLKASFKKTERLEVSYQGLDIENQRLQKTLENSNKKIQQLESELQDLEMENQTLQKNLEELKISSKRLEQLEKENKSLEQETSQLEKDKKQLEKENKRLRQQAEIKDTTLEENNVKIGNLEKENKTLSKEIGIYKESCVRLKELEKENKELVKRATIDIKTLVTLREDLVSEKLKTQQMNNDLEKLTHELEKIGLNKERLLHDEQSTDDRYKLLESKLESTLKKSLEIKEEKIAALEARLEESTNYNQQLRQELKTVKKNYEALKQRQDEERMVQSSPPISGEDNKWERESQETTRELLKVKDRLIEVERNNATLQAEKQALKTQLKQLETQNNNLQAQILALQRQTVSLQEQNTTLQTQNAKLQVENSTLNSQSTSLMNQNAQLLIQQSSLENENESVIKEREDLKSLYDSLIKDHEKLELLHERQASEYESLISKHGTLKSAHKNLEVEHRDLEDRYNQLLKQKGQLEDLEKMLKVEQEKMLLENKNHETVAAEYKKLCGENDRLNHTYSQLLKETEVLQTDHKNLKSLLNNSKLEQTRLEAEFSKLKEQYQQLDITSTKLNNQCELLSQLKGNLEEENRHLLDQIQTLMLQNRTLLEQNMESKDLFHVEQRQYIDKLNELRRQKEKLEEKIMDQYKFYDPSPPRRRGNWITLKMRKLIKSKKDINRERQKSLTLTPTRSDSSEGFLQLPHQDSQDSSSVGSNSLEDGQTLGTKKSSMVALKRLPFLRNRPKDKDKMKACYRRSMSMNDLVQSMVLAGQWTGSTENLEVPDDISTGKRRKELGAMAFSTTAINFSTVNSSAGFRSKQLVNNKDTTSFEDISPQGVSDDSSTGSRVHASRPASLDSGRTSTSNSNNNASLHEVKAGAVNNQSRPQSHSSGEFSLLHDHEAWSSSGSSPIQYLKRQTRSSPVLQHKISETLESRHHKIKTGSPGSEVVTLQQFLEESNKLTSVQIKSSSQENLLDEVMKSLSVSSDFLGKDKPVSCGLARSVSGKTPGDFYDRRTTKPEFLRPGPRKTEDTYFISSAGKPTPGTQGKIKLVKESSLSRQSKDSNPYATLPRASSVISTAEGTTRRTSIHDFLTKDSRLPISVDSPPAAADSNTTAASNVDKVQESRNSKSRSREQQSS
myc-tagged human GIV F1685A mutant (Q3V6T2-3, form named): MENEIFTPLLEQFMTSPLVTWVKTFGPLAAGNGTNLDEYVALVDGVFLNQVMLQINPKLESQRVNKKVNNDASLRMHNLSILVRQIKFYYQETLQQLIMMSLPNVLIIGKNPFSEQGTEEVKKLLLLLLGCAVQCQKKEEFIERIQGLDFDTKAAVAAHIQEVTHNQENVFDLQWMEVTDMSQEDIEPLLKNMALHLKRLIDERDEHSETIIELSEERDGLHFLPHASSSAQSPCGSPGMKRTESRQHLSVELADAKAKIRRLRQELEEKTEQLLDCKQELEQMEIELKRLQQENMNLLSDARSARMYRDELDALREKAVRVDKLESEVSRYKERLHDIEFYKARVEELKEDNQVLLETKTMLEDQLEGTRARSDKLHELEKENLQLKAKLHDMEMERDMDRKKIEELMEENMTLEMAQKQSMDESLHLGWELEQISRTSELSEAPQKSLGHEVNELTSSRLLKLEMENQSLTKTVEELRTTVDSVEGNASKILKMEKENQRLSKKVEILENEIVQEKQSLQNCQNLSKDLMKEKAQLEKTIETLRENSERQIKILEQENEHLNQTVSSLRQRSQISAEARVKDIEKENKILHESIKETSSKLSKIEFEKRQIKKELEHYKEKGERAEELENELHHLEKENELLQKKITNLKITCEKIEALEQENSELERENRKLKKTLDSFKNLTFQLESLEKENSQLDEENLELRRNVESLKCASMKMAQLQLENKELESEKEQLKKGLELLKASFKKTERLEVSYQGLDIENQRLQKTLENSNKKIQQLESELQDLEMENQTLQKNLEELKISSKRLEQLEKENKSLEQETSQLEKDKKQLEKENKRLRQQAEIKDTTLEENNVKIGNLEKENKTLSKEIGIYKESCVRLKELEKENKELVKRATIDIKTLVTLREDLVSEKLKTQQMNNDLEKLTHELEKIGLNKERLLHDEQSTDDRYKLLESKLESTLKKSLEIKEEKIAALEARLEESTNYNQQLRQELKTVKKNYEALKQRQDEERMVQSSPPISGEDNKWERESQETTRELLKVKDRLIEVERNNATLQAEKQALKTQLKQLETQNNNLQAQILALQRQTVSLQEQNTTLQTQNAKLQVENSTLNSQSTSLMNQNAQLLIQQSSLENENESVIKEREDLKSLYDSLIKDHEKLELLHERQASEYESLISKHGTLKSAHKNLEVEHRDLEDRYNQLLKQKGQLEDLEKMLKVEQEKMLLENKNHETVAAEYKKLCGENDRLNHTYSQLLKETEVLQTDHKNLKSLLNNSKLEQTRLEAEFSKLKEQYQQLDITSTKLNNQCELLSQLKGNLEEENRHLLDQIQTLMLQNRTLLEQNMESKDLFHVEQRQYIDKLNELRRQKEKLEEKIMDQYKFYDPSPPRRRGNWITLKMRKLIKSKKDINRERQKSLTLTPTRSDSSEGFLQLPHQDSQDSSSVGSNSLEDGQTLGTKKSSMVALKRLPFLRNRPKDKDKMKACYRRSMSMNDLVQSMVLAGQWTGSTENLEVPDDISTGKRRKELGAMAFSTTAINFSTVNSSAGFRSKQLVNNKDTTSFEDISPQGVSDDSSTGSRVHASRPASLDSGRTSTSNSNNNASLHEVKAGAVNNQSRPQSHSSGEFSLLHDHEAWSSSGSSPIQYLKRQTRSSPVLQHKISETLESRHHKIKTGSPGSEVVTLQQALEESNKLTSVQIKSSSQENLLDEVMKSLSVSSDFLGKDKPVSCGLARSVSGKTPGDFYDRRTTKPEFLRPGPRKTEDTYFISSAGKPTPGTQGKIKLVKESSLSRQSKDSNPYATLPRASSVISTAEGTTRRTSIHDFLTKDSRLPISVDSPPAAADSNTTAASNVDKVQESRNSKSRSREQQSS

What was measured:
FLAG-tagged Gαi3 = FLAG-tagged Gαi3 (UniProt P08753); test: co-IP; lysates of co-transfected HEK293T cells; capture antibody (anti-FLAG or anti-myc) 3 h at 4 °C, Protein A or Protein G beads; immunoblot
[1] = biological target: GST-tagged Gαi3 (purified rat Gαi3) (rat) (UniProt P08753); test: pull-down; purified GST-Gαi3 (no nucleotide loading told) immobilised on glutathione-Sepharose beads; lysates of HEK293T cells expressing myc-tagged WT or F1685A GIV or GIV-L; immunoblot with anti-myc; only the target purified
[2] = biological target: GST-tagged Gαi3 (purified rat Gαi3) (rat) (UniProt P08753); test: pull-down; purified GST-Gαi3 preloaded with GDP, immobilised on glutathione-Sepharose beads; lysates of transfected HEK293T cells; binding 4 h at 4 °C; immunoblot; only the target purified
Gαi1(91)-RLuc2 (human) = Gαi1(91)-RLuc2 (human) (UniProt P63096); test: FRET or BRET; basal BRET between Gαi1(91)-RLuc2 and mVenus-Gβγ in HEK293T cells co-transfected with CXCR4 and GIV variants (with or without Dvl); coelenterazine-h 10 μM, room temperature, average over 3 min
[3] = biological target: myc-tagged human GIV (wild type) (human) (UniProt Q3V6T2); test: co-IP; lysates of co-transfected HEK293T cells; capture antibody (anti-FLAG or anti-myc) 3 h at 4 °C, Protein A or Protein G beads; immunoblot

binding (FLAG-tagged Gαi3) | binding [1] | binding [2] | binding (Gαi1(91)-RLuc2 (human)) | binding [3] | Molecule
binds | binds | binds | binds | – | myc-tagged human GIV (wild type) (from UniProt Q3V6T2-3 1-1870)
– | no binding | – | – | – | myc-tagged human GIV F1685A mutant (from UniProt Q3V6T2-3 1-1870)
– | – | – | – | no binding | untagged Dvl1 (protein, UniProt O14640 1-695) MAETKIIYHMDEEETPYLVKLPVAPERVTLADFKNVLSNRPVHAYKFFFKSMDQDFGVVKEEIFDDNAKLPCFNGRVVSWLVLAEGAHSDAGSQGTDSHTDLPPPLERTGGIGDSRPPSFHPNVASSRDGMDNETGTESMVSHRRERARRRNREEAARTNGHPRGDRRRDVGLPPDSASTALSSELESSSFVDSDEDGSTSRLSSSTEQSTSSRLIRKHKRRRRKQRLRQADRASSFSSITDSTMSLNIVTVTLNMERHHFLGISIVGQSNDRGDGGIYIGSIMKGGAVAADGRIEPGDMLLQVNDVNFENMSNDDAVRVLREIVSQTGPISLTVAKCWDPTPRSYFTVPRADPVRPIDPAAWLSHTAALTGALPRYGTSPCSSAVTRTSSSSLTSSVPGAPQLEEAPLTVKSDMSAVVRVMQLPDSGLEIRDRMWLKITIANAVIGADVVDWLYTHVEGFKERREARKYASSLLKHGFLRHTVNKITFSEQCYYVFGDLCSNLATLNLNSGSSGTSDQDTLAPLPHPAAPWPLGQGYPYQYPGPPPCFPPAYQDPGFSYGSGSTGSQQSEGSKSSGSTRSSRRAPGREKERRAAGAGGSGSESDHTAPSGVGSSWRERPAGQLSRGSSPRSQASATAPGLPPPHPTTKAYTVVGGPPGGPPVRELAAVPPELTGSRQSFQKAMGNPCEFFVDIM
